# Hit rate of the full screen: of about 310,000 compounds, about 14,000 (4.5%) showed an effect of 50% or more. Effects have a minus sign here. The list shows a part of the results.
# Biological target: human ether-à-go-go-related gene (hERG) potassium channel (human, UniProt Q12809)
# Experiment: primary screen, population patch clamp on CHO cells stably expressing hERG
# 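Also: peak tail current of the secondary pulse compared with the same well before compound.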
# human ether-à-go-go-related gene (hERG) potassium channel, sequence (Q12809 whole entry, looked up): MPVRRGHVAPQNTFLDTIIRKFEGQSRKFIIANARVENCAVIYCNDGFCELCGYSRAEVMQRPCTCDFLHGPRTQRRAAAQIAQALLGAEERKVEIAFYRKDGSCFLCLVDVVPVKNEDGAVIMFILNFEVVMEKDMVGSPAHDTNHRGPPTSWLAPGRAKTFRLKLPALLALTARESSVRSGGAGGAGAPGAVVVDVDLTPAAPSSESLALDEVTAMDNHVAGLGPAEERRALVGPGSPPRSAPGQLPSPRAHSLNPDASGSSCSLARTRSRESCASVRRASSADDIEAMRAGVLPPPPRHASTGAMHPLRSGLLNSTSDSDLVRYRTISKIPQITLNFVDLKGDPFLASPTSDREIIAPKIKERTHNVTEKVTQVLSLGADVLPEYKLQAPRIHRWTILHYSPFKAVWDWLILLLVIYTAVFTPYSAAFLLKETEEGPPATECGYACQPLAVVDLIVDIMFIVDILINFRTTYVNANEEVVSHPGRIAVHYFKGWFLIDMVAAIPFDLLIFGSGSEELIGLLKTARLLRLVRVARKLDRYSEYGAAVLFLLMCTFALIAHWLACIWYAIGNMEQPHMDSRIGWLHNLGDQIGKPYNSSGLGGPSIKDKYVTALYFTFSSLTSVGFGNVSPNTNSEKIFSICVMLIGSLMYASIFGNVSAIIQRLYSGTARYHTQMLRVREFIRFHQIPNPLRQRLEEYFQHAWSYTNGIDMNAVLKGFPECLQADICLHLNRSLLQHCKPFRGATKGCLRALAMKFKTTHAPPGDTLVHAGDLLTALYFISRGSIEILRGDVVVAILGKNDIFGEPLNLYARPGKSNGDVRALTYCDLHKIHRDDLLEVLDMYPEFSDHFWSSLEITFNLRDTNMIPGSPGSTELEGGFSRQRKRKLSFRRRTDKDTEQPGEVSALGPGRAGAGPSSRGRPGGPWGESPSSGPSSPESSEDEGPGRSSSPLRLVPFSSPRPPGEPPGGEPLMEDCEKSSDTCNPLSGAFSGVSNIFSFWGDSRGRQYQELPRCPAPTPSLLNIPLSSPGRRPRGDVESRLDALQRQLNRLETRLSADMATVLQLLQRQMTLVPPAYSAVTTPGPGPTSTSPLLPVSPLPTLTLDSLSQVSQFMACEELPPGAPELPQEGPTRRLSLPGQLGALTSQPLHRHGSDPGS
row,SMILES,"hERG current change (%, negative = inhibition) at 10uM"
1,Clc1ccc(N2CCN(Cc3ccco3)CC2)cc1,-14.2%
2,CCn1ccnc1C(O)(c1ccccc1)c1ccccc1,-6.51%
3,CCN1CCN(C(=O)COc2ccc(S(=O)(=O)N3CCOCC3)cc2Cl)CC1,3.13%
4,Cc1nn(-c2ccccc2)c2[nH]c(=O)c(CNCC3CCCO3)cc12 (stereo not drawn),-1.43%
5,O=C(NCCc1ccc(O)cc1)c1ccc(Cl)cc1,-12.8%
6,CCc1ccc(OCCCC(=O)Nc2ccc(N3CCOCC3)cc2)cc1,21.8%
7,Cn1nc([N+](=O)[O-])nc1Sc1nnnn1-c1cccc(C(=O)O)c1,13.3%
8,Cc1[nH]c2ccccc2c1C(c1ccccn1)N1CCC(C(N)=O)CC1 (stereo not drawn),-11.4%
9,C/C(=N\OCC(=O)OCC(=O)NC(=O)c1ccc(OC(F)F)cc1)c1ccc2c(c1)OCO2,-37.5%
10,CC(C(=O)N1CCOCC1)N1C(=O)C2C3CC(C(Br)C3Br)C2C1=O (stereo not drawn),-1.46%
11,Cn1c(C(=O)N2CCCC(C(=O)NCCCc3ccccc3)C2)cc2sccc21 (stereo not drawn),-46.4%
12,CCOc1cc(S(=O)(=O)NCCc2cccc(C)c2)c(OCC)cc1-n1cnnn1,-22.4%
13,CCCn1c(N)c(Sc2ccccc2[N+](=O)[O-])c(=O)n(CCC)c1=O,5.29%
14,O=C(Nc1ccc(F)cc1)N(Cc1ccco1)Cc1cc2cc3c(cc2[nH]c1=O)OCO3,6.08%
15,CCCCC#Cc1cncc(C(=O)N/N=C/c2ccccc2)c1,11.8%
16,COc1ccccc1CNC(=O)COc1ccc([N+](=O)[O-])cc1,-32.5%
17,Clc1ccc(CNc2ccccn2)cc1,-12.7%
18,Cc1cc(/C=N/n2cnnc2)c(C)n1-c1cc(Cl)ccc1Cl,-32%
19,O=C(CCC1CCCCC1=O)c1ccccc1 (stereo not drawn),-1.23%

row,SMILES,"hERG current change (%, negative = inhibition) at 10uM"
1,O=C(NCCCN1CCOCC1)C1Nc2ccc(OC(F)(F)F)cc2C2C=CCC12 (stereo not drawn),-18.9%
2,Cc1cccc(OCc2nnc(SCC(=O)OC3CCCCC3)o2)c1,14.1%
3,O=C1CC(=C(c2ccccc2)c2ccccc2)C(=O)N1CCCCN1CCN(c2ccccc2)CC1,-63.3%
4,CC12CCC(C(=O)Nc3cccc4ccccc34)(C1Br)C2(C)C (stereo not drawn),15.3%
5,O=S(=O)(NNc1nccc(C(F)(F)F)n1)c1cccc(Cl)c1Cl,26.4%
6,CCCn1c(CC)nc([N+](=O)[O-])c1S(=O)(=O)c1ccccc1,-23.8%
7,CC1=C(NCCc2ccccc2)CCC1=O,11.5%
8,O=C(NCc1cccnc1)Nc1cccc(Cl)c1Cl,0.584%
9,c1ccc(C2=NCCCN2)cc1,-7.18%
10,COc1ccc(CCNC2CC(C)N(C)CC2C)cc1OC.Cl (stereo not drawn),3.84%
11,CCOC(=O)c1sc(C)c2c1NC(C)(c1cccc3ccccc13)NC2=O (stereo not drawn),11%
12,Cc1ccc(-n2ncc3c(SCC(=O)NNC(=O)C(C)C)ncnc32)cc1,30.5%
13,c1ccc(N2CCN(Cc3cn4ccccc4n3)CC2)cc1,10.8%
14,CCOC(=O)N1CCN(C(=O)c2ccc(CN(c3ccccc3)S(C)(=O)=O)cc2)CC1,6.55%
15,O=C(C[n+]1ccc(C(=O)N/N=C/c2ccc(Br)cc2)cc1)c1ccccc1.[Br-],-63.6%
16,CC(C)(C)c1ccc(S(=O)(=O)N2CCCCC2C(=O)NCc2ccccn2)cc1 (stereo not drawn),-23.6%
17,O=CN1CCCN(C(=O)CC2C(=O)NCCN2Cc2cccc(Oc3ccccc3)c2)CC1 (stereo not drawn),-15.7%
18,CN(C)c1ccc(Nc2cc(Cl)ncn2)cc1,1.65%
19,O=c1cc(CO)oc(CN2CCN(c3ccccc3F)CC2)c1O,6.86%

row,SMILES,"hERG current change (%, negative = inhibition) at 10uM"
1,COC(=O)c1c(NC(=O)CCc2ccc(C)o2)sc(C)c1C,-5.99%
2,CCCCN(C)CCNC(=O)c1cc(-c2cccnc2)nc2ccc(S(=O)(=O)N3CCC(C)CC3)cc12,-35.5%
3,COc1ccc(CC(NC(C)=O)C(=O)N2CCN(C(=O)N(C(C)C)C(C)C)CC2)cc1 (stereo not drawn),0.101%
4,Cn1c2ccccc2c(=O)c2c(=O)n(Cc3ccco3)c(-c3ccc(F)cc3)nc21,-15.1%
5,CCOc1ccc(NC(=O)CN(C)CC(=O)Nc2ccc(Br)cc2F)cc1OCC,-17.6%
6,C=CCNc1nc(NCCN2CCOCC2)nc(N2CCOCC2)n1,18.6%
7,CCOC(=O)c1ccc(N2C(=O)CC(N3CCN(C(=O)c4ccccc4)CC3)C2=O)cc1 (stereo not drawn),-1.74%
8,Cn1cc(C(=O)N/N=C/c2ccc3c(c2)OCO3)c2ccccc21,-10.2%
9,Oc1ccccc1C1N=C(c2ccccc2)NC(c2ccccc2)=N1,-7.87%
10,O=c1c2ccccc2n(CC(O)CN2CCCCC2)c2ccccc12 (stereo not drawn),-32%
11,O=C(NCc1cccc(Cl)c1)c1ccc(S(=O)(=O)Nc2cccc(C(F)(F)F)c2)cc1,15.4%
12,C/C(=N\NC(=O)c1ccc(Cl)cc1)c1cccc(NC(=O)C(C)C)c1,-0.802%
13,CCN(CC)CCn1c(OC)cc(=O)[nH]c1=O,17.6%
14,CNC(=S)NNC(=O)COc1cccc(C)c1C,21.4%
15,O=C(COC(=O)c1ccc(N2CCCC2=O)cc1)Nc1ccccc1,21.3%
16,COc1ccccc1N(CC(=O)Nc1cccnc1)S(=O)(=O)c1ccccc1,-2.72%
17,O=C(O)CCC(=O)c1c[nH]c2ccccc12,-7.54%
18,O=C(NCC(Cl)c1ccc2ccccc2c1)c1c(F)cccc1F (stereo not drawn),9.66%
19,Cc1ccn(CCC(=O)Nc2ccc(-c3ccno3)cc2)n1,-0.855%

# — paper PMC4336329 (PLoS ONE, 2015)
